# Reference: PubChem BioAssay (NCI)
#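 Briefly, cells in 96-well plates were exposed to five compound concentrations for 48 h, and endpoints were estimated by linear interpolation. GI50 marks 50% less growth. TGI denotes the concentration required for complete inhibition of growth.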
# Tested on: NCI-H322M lung
# Experiment: DTP human tumour cell line panel, 48 h
SMILES,GI50 [µM],TGI [µM]
Cc1nc(Nc2ncc(C(=O)Nc3c(C)cccc3Cl)s2)cc(N2CCN(CCCNC(=O)COc3ccc(C4CCC(=O)NC4=O)cc3)CC2)n1 (stereo unspecified),0.812,> 100
O=C(CNc1nc(-c2ccccc2)cs1)Nc1ccc(Cl)cc1[N+](=O)[O-],5.44,18.6
CC1CCCCN1CCCNC(=O)N/C(N)=N/c1nc2ccccc2s1 (stereo unspecified),26.8,> 100
